This passage reports cytotoxicity call results from the antibiotic and cytotoxicity screens of Wong et al. (2023).

This is one part of the list.

The experiment concerns HSkMC (human skeletal muscle cells). Put plainly: cytotoxicity call (relative viability < 0.9). As to conditions: 10 µM.
`CCC(=O)OC(CC(=O)O)C[N+](C)(C)C.[Cl-]` (stereo not drawn): the cytotoxicity call is “inactive”.
On to `COc1ccc(S(=O)(=O)Nc2ccc3c(c2)C(=O)N([C@H](C)CO)C[C@H](C)[C@@H](CN(C)S(=O)(=O)c2ccc(Cl)cc2)OCCCC[C@@H](C)O3)cc1`, for which the cytotoxicity call is “inactive”.
Consider `C[C@@H]1CN([C@H](C)CO)C(=O)c2cc(NC(=O)CCC(F)(F)F)ccc2O[C@@H](C)CCCCO[C@H]1CN(C)C(=O)Nc1cccc2ccccc12`, for which the cytotoxicity call was “inactive”.
The same measure for `C[C@@H]1CN([C@@H](C)CO)C(=O)CCCn2cc(nn2)CO[C@@H]1CN(C)S(=O)(=O)c1ccc(Cl)cc1`: “inactive”; for `NC[C@@](O)(c1ccc(Cl)cc1)c1ccc(-c2cn[nH]c2)cc1`: “inactive”; for `C[C@@H]1CCCCO[C@@H](CN(C)C(=O)C2CCCCC2)[C@@H](C)CN([C@@H](C)CO)C(=O)c2cc(NS(=O)(=O)c3ccccc3)ccc2O1`: “inactive”.
Then `C[C@@H]1CN([C@@H](C)CO)C(=O)c2cc(C#CC3(O)CCCC3)cnc2O[C@@H]1CN(C)S(=O)(=O)c1ccccc1`, with “inactive”; and `C[C@H](CO)N1C[C@H](C)[C@H](CN(C)C(=O)Nc2ccc(C(F)(F)F)cc2)Oc2ccc(NC(=O)Nc3ccc(F)cc3)cc2CC1=O`, with “inactive”; and `COC(=O)[C@H](Cc1ccccc1)N1CC2=C[C@H](C3CC3)n3c(=O)n(C)c(=O)n3[C@@H]2[C@H]1[C@H](O)Cc1ccccc1`, with “inactive”.
Turning to `Cc1ccc(S(=O)(=O)N(C)C[C@H]2Oc3ccc(NS(=O)(=O)c4c(C)noc4C)cc3C(=O)N([C@@H](C)CO)C[C@@H]2C)cc1`, the cytotoxicity call was “inactive”.
Then `C=C(C(=O)O[C@H]1CC=C(C)C[C@H](O)[C@H]2[C@H](C)C(=O)O[C@@H]2/C=C/1C)[C@@H]1CCC(=C)[C@@H]2C[C@H](O[C@@H]3O[C@H](COC(=O)CC(=O)O)[C@@H](O)[C@H](O)[C@H]3O)C(=C)[C@@H]2C1`, with “inactive”; and `O=C(OC1Cc2c(O)cc(O)cc2OC1c1cc(O)c(O)c(O)c1-c1c(C2Oc3cc(O)cc(O)c3CC2OC(=O)c2cc(O)c(O)c(O)c2)cc(O)c(O)c1O)c1cc(O)c(O)c(O)c1` (stereo not drawn), with “inactive”; and `C[C@H]1CN([C@@H](C)CO)C(=O)Cc2cc(NS(=O)(=O)c3ccc(Cl)cc3)ccc2O[C@@H]1CN(C)Cc1ccc(C(=O)Nc2ccccc2N)cc1`, with “inactive”.
The same measure for `Cc1noc(C)c1NC(=O)Nc1ccc2c(c1)CC(=O)N([C@@H](C)CO)C[C@H](C)[C@@H](CN(C)S(=O)(=O)c1cn(C)cn1)O2`: “inactive”; for `COc1ccc(NC(=O)Nc2ccc3c(c2)C(=O)N([C@@H](C)CO)C[C@H](C)[C@@H](CN(C)Cc2ccccc2)OCCCC[C@@H](C)O3)cc1`: “inactive”.
The same measure for `Cc1ccc(S(=O)(=O)N(C)C[C@H]2Oc3c(NC(=O)c4cnccn4)cccc3C(=O)N([C@H](C)CO)C[C@H]2C)cc1`: “inactive”; for `O=C1[C@@H]2CCCN2C(=O)[C@@H]2CCCN12`: “inactive”.
As for `C[C@H](CO)N1C[C@H](C)[C@H](CN(C)S(=O)(=O)c2ccc(F)cc2)Oc2ccc(NS(=O)(=O)c3cn(C)cn3)cc2C1=O`, the cytotoxicity call was “inactive”.
For the molecule `CCCN(C)C[C@H]1OCCCC[C@H](C)Oc2ccc(NC(=O)Cc3ccccc3)cc2C(=O)N([C@@H](C)CO)C[C@H]1C`, the cytotoxicity call was “inactive”.
Turning to `CN(C)C(=O)C[C@@H]1CC[C@H]2[C@@H](COC[C@H](O)CN2S(=O)(=O)c2ccccc2)O1`, the cytotoxicity call was “inactive”.
Then `NC(=O)OCC(COC(N)=O)c1ccccc1`, with “inactive”; and `N=C(NO)c1cccc(C(=N)NO)n1`, with “inactive”; and `C[C@@H]1CN([C@H](C)CO)S(=O)(=O)c2ccc(C#Cc3ccc(F)cc3)cc2O[C@H]1CN(C)S(=O)(=O)c1ccc(F)cc1`, with “inactive”.
Then `Cc1noc(C)c1NC(=O)N(C)C[C@@H]1OCCCC[C@@H](C)Oc2ccc(NC(=O)Nc3ccccc3)cc2C(=O)N([C@H](C)CO)C[C@@H]1C`, with “inactive”; and `C[C@H]1CCCCO[C@@H](CN(C)Cc2ccc(C(=O)O)cc2)[C@@H](C)CN([C@@H](C)CO)C(=O)c2cc(NC(=O)Cc3ccccc3)ccc2O1`, with “inactive”; and `CCCCCCCCCCCCCCCCCCCCCCO`, with “inactive”.
Take `C[C@@H]1CN([C@H](C)CO)C(=O)Cc2cc(NC(=O)CCC(F)(F)F)ccc2O[C@H]1CN(C)C(=O)Nc1cccc2ccccc12`: the cytotoxicity call was “inactive”.
Consider `Cc1ccc(S(=O)(=O)Nc2ccc3c(c2)C(=O)N([C@@H](C)CO)C[C@@H](C)[C@H](CN(C)Cc2ccc4c(c2)OCO4)OCCCC[C@H](C)O3)cc1`, for which the cytotoxicity call was “inactive”.
